Results as given in PMC4336329 (PLoS ONE, 2015).
Screen size: about 310,000 compounds; about 2,200 (0.71%) showed an effect of 50% or more. The effect is printed as a negative number. Some of the results follow.

Molecular target: human ether-à-go-go-related gene (hERG) potassium channel (human, UniProt Q12809)
Assay: primary screen, population patch clamp on CHO cells stably expressing hERG

human ether-à-go-go-related gene (hERG) potassium channel, sequence (Q12809 whole entry, looked up): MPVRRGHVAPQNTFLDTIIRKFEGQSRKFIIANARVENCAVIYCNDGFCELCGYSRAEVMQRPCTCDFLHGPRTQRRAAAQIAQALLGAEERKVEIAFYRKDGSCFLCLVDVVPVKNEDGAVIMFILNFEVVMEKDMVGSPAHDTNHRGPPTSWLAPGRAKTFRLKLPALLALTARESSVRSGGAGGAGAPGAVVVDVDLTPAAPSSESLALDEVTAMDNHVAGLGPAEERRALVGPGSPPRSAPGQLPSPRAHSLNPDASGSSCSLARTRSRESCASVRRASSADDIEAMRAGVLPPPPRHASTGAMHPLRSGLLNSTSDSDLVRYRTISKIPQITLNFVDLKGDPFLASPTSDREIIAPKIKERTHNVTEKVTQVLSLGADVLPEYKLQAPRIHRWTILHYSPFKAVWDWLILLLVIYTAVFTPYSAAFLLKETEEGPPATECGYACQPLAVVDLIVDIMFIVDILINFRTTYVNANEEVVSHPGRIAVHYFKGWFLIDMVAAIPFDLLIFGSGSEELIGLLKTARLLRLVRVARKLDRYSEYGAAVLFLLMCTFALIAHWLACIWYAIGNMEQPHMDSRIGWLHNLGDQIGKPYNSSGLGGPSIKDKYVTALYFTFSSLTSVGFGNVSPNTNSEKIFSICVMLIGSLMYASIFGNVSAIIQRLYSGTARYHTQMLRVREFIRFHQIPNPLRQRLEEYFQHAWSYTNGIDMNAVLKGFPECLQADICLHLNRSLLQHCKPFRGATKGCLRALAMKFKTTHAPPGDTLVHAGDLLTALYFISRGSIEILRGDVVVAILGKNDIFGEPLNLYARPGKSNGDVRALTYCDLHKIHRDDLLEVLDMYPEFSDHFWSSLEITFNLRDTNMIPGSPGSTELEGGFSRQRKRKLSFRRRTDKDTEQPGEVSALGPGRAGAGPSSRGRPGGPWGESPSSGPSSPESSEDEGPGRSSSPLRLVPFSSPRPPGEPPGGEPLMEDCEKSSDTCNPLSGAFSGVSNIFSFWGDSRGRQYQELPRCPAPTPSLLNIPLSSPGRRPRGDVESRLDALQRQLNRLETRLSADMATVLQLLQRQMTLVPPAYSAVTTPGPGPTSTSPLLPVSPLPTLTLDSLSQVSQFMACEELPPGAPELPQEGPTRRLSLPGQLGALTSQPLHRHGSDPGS

Compound | hERG current change (%, negative = inhibition) at 1uM [%]
Cc1ccc(OCC(=O)Nc2ccc(NC(=O)c3cccs3)cc2)c(C)c1 | 13.9
Cc1ccccc1NC(=O)/C(C#N)=C/c1ccc[nH]1 | 17.6
CC1=NNC(=O)C1CCC(=O)N/N=C\c1cccc(Cl)c1 (stereo not drawn) | 15.8
CN(Cc1ccccc1)C(=O)COc1ccc(Br)cc1Cl | -3.2
CS(=O)(=O)c1ccc2nc(NC3(C(F)(F)F)N=C4SCCN4C3=O)sc2c1 (stereo not drawn) | 5.94
CCCC(C)NC(=O)c1sc2nc3n(c(=O)c2c1C)CCC3 (stereo not drawn) | 3.01
O=C(Nc1ccc2nc(-c3ccc(Br)o3)[nH]c2c1)c1cccs1 | -3.23
CS(=O)(=O)Nc1ccc(S(=O)(=O)NC2CCCCC2)cc1 | 7.13
O=C(NCC(=O)N(c1ccc2c(c1)OCCO2)C(C(=O)NC1CCCC1)c1ccco1)c1ccco1 (stereo not drawn) | 4.82
Oc1[nH]c2ccc(Br)cc2c1N=NC(=S)Nc1ccc(F)cc1 | 14.1
CC1(c2ccc(OC(F)F)cc2)NC(=O)N(CC(=O)NC2CCCC2)C1=O (stereo not drawn) | -4.99
O=C(N1CCOCC1)N1CCN(S(=O)(=O)c2cccc([N+](=O)[O-])c2)CC1 | 11.2
Cc1ccc(NC(=O)CSCC(=O)Nc2ccccc2C(=O)N2CCCCC2)cc1 | 13.5
NC(=S)Nc1nc2ccccc2s1 | 17.3
CSc1nc(N)c2c3c(sc2n1)CN(C)CC3 | -2.24
COc1ccc(N2CCN(Cc3nc4cc(Cl)ccc4c(=O)[nH]3)CC2)cc1 | 9.03
O=C(Cc1ccccc1)NN1C(=O)C2C3C=CC(C3)[C@@H]2C1=O (stereo partly drawn) | 4.09
C=CCNCCCCOc1ccc(OCc2ccccc2)cc1.O=C(O)C(=O)O | -8.04
S=C(NCC1CCCO1)N1CCN(c2ccc(Cl)c(Cl)c2)CC1 (stereo not drawn) | 12.4
O=C1C2CCCN2C(c2ccccc2)N1c1nccs1 (stereo not drawn) | 17.3
Cc1ccc(C2c3[nH]c4ccccc4c3C[C@H]3C(=O)N(c4ccccc4C(=O)N4CCC(C(=O)O)CC4)C(=O)N23)cc1 (stereo partly drawn) | 10.1
O=C(CCNC(=O)c1ccc(Br)cc1)Nc1ccccc1N1CCOCC1 | -3.73
Cc1ccc(C(=O)Oc2ccc(/C=N/NC(N)=O)cc2)cc1 | 11.6

Compound | hERG current change (%, negative = inhibition) at 1uM [%]
CCCNC(=O)C1CC(c2ccccc2C(F)(F)F)=NO1 (stereo not drawn) | 15.2
Cc1cc(-c2nnc(SCC(=O)Nc3cccc(C)c3C)n2N)n[nH]1 | 18.1
Cc1ccc(S(=O)(=O)NCC(=O)OCC(=O)Nc2ccccc2OC(F)F)cc1 | 7.33
COCCCNC(=O)CCN1C(=O)COc2ccccc21 | 20
COc1ccc2cc(CCNS(=O)(=O)c3c(C)cc(C)cc3C)c(=O)[nH]c2c1 | 11.2
COc1ccc(NC(=O)COC(=O)C2CC(=O)N(c3ccc(C)cc3)C2)cc1 (stereo not drawn) | 11.5
CN(C)c1cccc(C(=O)OCC(=O)N(C)c2ccccc2)c1 | 10.9
O=C(c1ccc(Cl)c(Cl)c1)N1CCCC1 | 16.4
Cc1nnc(NC(=O)c2csc3c2CCC(C)C3)s1 (stereo not drawn) | 14.4
Cc1ccc(C(=O)NCCc2nnc3ccc(SCC(=O)Nc4c(C)cc(C)cc4C)nn23)cc1 | 4.18
Cc1cc(C)cc(OCC(=O)NNC(=O)c2cc(C)[nH]n2)c1 | 11.6
CCn1c(CNS(=O)(=O)c2ccc(Br)cc2)n[nH]c1=S | 11.6
Cc1c(C(=O)NNC(=S)NCc2ccc(Cl)cc2)oc2ccccc12 | 14.8
O=C(c1ccc(Br)s1)N1CCN(c2ccccn2)CC1 | 9.44
C=C(C)c1cccc(C(C)(C)NC(=O)Nc2ccccc2OCC)c1 | 14.5
COc1ccc(CNC(=O)CC23CC4CC(CC(C4)C2)C3)cc1OC | 8.5
Cn1cccc1C(=O)NC(=O)COC(=O)CNC(=O)CNC(=O)c1ccc(Cl)cc1Cl | 13.8
O=C1OC(c2ccc(Br)cc2)=N/C1=C\c1ccco1 | 23.2
COc1ccc(C(=O)/C(=C/c2cccs2)c2nc3ccccc3o2)cc1 | -1.18
COc1ccccc1CNc1ncnc2nc[nH]c12 | 16.5
CC1Cc2nc(SCC(=O)N3CCN(c4ccccc4)CC3)n(C)c(=O)c2S1 (stereo not drawn) | 9.24
O=C(C1CC1)N1CCN(c2ccnc3cc(Cl)ccc23)CC1 | -31.6
O=C(CSc1nnc(CNC(=O)C23CC4CC(CC(C4)C2)C3)n1-c1ccc(F)cc1)Nc1ccc(F)cc1 | 10.4

Compound | hERG current change (%, negative = inhibition) at 1uM [%]
CCOC(=O)C1CCCN(S(=O)(=O)CCNC(=O)c2cccc(OC)c2)C1 (stereo not drawn) | 6.16
O=C(CCNC(=O)c1ccccc1Cl)Nc1ccccc1N1CCCC1 | 7.86
O=C(CCS(=O)(=O)c1ccccc1)NCCS(=O)(=O)c1ccccc1 | 13.7
O=C(NC1CCCC1)C(c1cccnc1)N(Cc1ccc(F)cc1)C(=O)c1csnn1 (stereo not drawn) | 1.36
COc1cccc(N2CCN(C(=O)CCc3nnc4ccc(N5CCCC5)nn34)CC2)c1 | -1.62
CCC1=Nc2ccc(Br)cc2C(c2ccccc2)N1CC(=O)OC (stereo not drawn) | -9.82
Cc1cc2oc(C(=O)Nc3ccc(S(=O)(=O)Nc4ncccn4)cc3)cc(=O)c2cc1Cl | -6.76
O=C(NCc1nc2ccccc2[nH]1)c1ccc(S(=O)(=O)N2CCOCC2)cc1 | 8.91
COc1ccc(CCNc2nc(-c3ccncc3)cs2)cc1OC | 0.664
CCCN1CCN(CCCNC(=O)CCn2nc(-c3ccccc3)ccc2=O)CC1 | -12.5
Cn1c(=O)c(=O)n(C)c2cc(N3CCOCC3)c(NS(=O)(=O)c3ccc([N+](=O)[O-])cc3)cc21 | 4.62
CCOCCn1c(CN2CCOCC2)nc2c1c(=O)[nH]c(=O)n2C | 14.1
CS(=O)(=O)N(Cc1ccccc1)c1ccc(C(=O)N2CCOCC2)cc1 | -5.91
CCOC(=O)C1(Cc2ccccc2)CCCN(Cc2ccc(OCC)c(CO)c2)C1 (stereo not drawn) | 4.54
N#CCCNc1ccc(OCCC#N)cc1 | 17.3
COc1cc(/C=N/NC(=O)C[n+]2ccccc2)cc(OC)c1OC(C)=O.[Cl-] | 13.8
Cc1cccc(NC(=O)C23CCC(C)(/C(=N/O)C2)C3(C)C)c1 (stereo not drawn) | -1.6
Cc1cc(=O)[nH]c(SCC(=O)Nc2ccc(Br)cn2)n1 | -1.01
COc1ccc(CNc2ccc(-c3ccc(OC)cc3)nn2)cc1 | 1.82
O=C(NCc1ccccc1)c1nc2c(nnn2Cc2cccc(Cl)c2)c(=O)[nH]1 | 10.1
CCN(CC)CCNC(=O)COc1ccc(OC)cc1.Cl | 8.72
O=C(COc1ccc([N+](=O)[O-])cc1)Nc1cccnc1 | -14.8
CCCCC(=O)Nc1ncc2c(n1)CC(C)(C)CC2=O | 3.92

Compound | hERG current change (%, negative = inhibition) at 1uM [%]
Cc1ccc(NC(=O)/C(Cl)=C\c2ccccc2)cc1 | 10.2
O=C(CCNC(=O)c1ccc(Br)cc1)NCc1ccccc1F | 0.387
CCC(C)Sc1nc2c(c(=O)[nH]c(=O)n2C)n1CC(O)COc1ccccc1C (stereo not drawn) | 6.21
O=C(c1ccc(Cl)cc1Cl)N1CCN(c2ccccn2)CC1 | 13.9
CCN(CC)c1ncn(Cc2c(Cl)cccc2Cl)c2ncnc1-2 | 3.87
S=C(NCCSCc1c(Cl)cccc1Cl)Nc1ccccc1 | 2.09
CCCOc1ccc(S(=O)(=O)N2CCN(C)CC2)c2ccccc12 | 1.66
Cn1c(=O)[nH]c(=O)c2c1nc(NCCCn1ccnc1)n2Cc1ccccc1 | 5.08
O=C(Nc1nnc(N2CCCCCC2)s1)c1cc(-c2ccc(Br)cc2)on1 | 15.4
NS(=O)(=O)c1ccc(CCNC(=O)c2cccc([N+](=O)[O-])c2)cc1 | 2.31
COc1ccccc1CNC(=O)C1CCN(S(C)(=O)=O)CC1 | -6.93
CCn1c(/C=C/N(C)c2ccccc2)[n+](CC)c2ccc(Cl)cc21.[I-] | -7.59
CCCCNC(=O)CSc1nc2ccc(C)cc2[nH]1 | 5.56
CCOc1c(Br)cc(/C=N\NC(=O)c2ccccc2)cc1OC | 16.2
CCOc1ccc(NC(=O)C2CC3CCC2C3)cc1 (stereo not drawn) | 15.9
COc1ccccc1N1CCN(Cc2ccc(Br)o2)CC1 | 6.13
Cc1cccc(/C=N/NC(=O)c2cccc(NC(=O)c3ccccc3)c2)n1 | 8.78
O=C(NCc1cccnc1)Nc1ccc2c(c1)OCO2 | 4.41
CCC(Sc1nc2cc3c(cc2c(=O)n1Cc1ccco1)OCO3)C(=O)NCCOC (stereo not drawn) | -28.1
CCCCN(C(=O)c1ccc(OC(F)(F)F)cc1)c1c(N)n(CCC)c(=O)[nH]c1=O | 10.8
CC1(C)CC(NC(=O)CSc2ccccc2)CC(C)(C)N1 | 6.28
